Measured values from paper PMC12733242, “The Functional Role of Gate Loop Residues in Arrestin Binding to GPCRs” (International Journal of Molecular Sciences, 2025).

Biological target: T1, unphosphorylated light-activated bovine rhodopsin (bovine, UniProt P02699 1-348, light-activated)
T1 construct: rhodopsin, bovine, wild type, in native disk membranes; Native protein; source: purified bovine rhodopsin in native disk membranes, unphosphorylated
Experiment: radioligand binding; direct binding assay: 1 nM [14C]leucine-labelled arrestin-1 (50 fmol) from cell-free translation incubated with 0.3 μg of P-Rh* or Rh* (7.8 pmol) in 50 mM Tris-HCl pH 7.4, 100 mM potassium acetate, 1 mM EDTA, 1 mM DTT, 5 min at 37 °C under room light; bound arrestin separated with rhodopsin-containing membranes by gel filtration on Sepharose CL-2B at 4 °C, scintillation counting; binding in …
Conditions: one partner purified

T1 sequence (P02699 whole entry): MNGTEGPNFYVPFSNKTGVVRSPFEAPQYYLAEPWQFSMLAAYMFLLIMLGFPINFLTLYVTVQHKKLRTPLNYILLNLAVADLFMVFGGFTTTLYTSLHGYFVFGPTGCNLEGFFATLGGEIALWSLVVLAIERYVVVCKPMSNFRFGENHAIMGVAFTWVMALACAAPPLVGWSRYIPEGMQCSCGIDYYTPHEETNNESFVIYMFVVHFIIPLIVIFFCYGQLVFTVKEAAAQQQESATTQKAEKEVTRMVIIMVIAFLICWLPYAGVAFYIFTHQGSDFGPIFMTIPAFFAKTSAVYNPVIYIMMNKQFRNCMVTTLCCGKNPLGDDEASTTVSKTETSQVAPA

increase of binding over WT: ~60%
B1: bovine arrestin-1 Gly292Ala (natural protein)
chain: not shown
modifications: [14C]leucine incorporated
notes: arrestin-1, bovine; bovine residue numbers; source: cell-free translation, radiolabelled; translation mix after centrifugation
